# Reference: article PMC10668032
# The list shows a part of the results. At the low end of the ranking the order means little.
# Molecular target: SIX1-Q177R homeodomain (UniProt Q15475)
# Experiment: universal protein binding microarray
# Settings: Universal all-10-mer PBM (8x60K, AMADID 030236), 300 nM GST-tagged protein, Alexa Fluor 488 anti-GST; buffer, salt, pH and temperature not stated; high values mean tight binding; most listed sequences are background and not binding sites; double strand, one strand shown
row,Sequence,binding signal
1,CGCGACCC,0.169 E-score
2,GCAAGTAA,-0.149 E-score
3,TCAATTAA,-0.0664 E-score
4,ATACGCGA,0.151 E-score
5,GACTCCCA,0.067 E-score
6,AGCGGTAG,-0.134 E-score
7,CATATAAG,0.00292 E-score
8,ACATCTAG,-0.149 E-score
9,ACACTGGG,0.412 E-score
10,CATATTAG,-0.0393 E-score
11,GCCAAATA,-0.166 E-score
12,GGCGCAAC,-0.0717 E-score
13,AAAAACCT,-0.0787 E-score
14,CAGAACTC,-0.0316 E-score
15,ACCAGGTA,0.241 E-score
16,AGGGTCGC,-0.014 E-score
17,GTGATAGA,0.0102 E-score
18,AGTTAGTC,-0.0914 E-score
19,AATGGCGT,0.0566 E-score
20,AGGTCTCC,-0.142 E-score
21,ATTGCAAA,-0.239 E-score
22,CGCTTGTA,0.00364 E-score
23,CGTAGTAG,0.0294 E-score
24,ATTTCTAC,-0.103 E-score
25,CGAGAACA,0.0262 E-score

row,Sequence,binding signal
1,AACGTTGC,-0.268 E-score
2,GCGCGAGA,-0.117 E-score
3,GGCAAGAC,0.0104 E-score
4,ATACTATC,-0.0242 E-score
5,AGGAACAA,-0.224 E-score
6,GATCACCA,-0.0262 E-score
7,AGTGCAGC,-0.038 E-score
8,AGGCTAAT,-0.162 E-score
9,GTTCACTA,-0.166 E-score
10,GAGTCAGA,0.21 E-score
11,GCTACAGC,-0.282 E-score
12,AAATTCCA,-0.298 E-score
13,GTTGTGTA,0.255 E-score
14,CACTTGTA,0.149 E-score
15,CAAAGACA,-0.0206 E-score
16,AGGTATCC,0.344 E-score
17,CCCAGCAC,0.0287 E-score
18,AATCGGGT,0.0756 E-score
19,ACGTGCAC,0.142 E-score
20,CCAGCACC,0.153 E-score
21,GGCCGCGA,-0.271 E-score
22,GAGCTGAC,0.0373 E-score
23,ATAAAGCG,-0.0589 E-score
24,CATCAACC,-0.0973 E-score
25,CTGAAGCA,-0.145 E-score

row,Sequence,binding signal
1,CGGTCTGA,-0.223 E-score
2,AGGAGCCG,-0.0765 E-score
3,AATAGGCC,-0.102 E-score
4,CTGAACAA,-0.0629 E-score
5,GAAGATAC,0.16 E-score
6,CTGGGACA,0.0675 E-score
7,AGATCTGA,-0.0204 E-score
8,ATTGTGGC,-0.124 E-score
9,CAGGCGCA,-0.128 E-score
10,AACTAGTC,-0.0563 E-score
11,ACATACCT,0.0077 E-score
12,GAAGCCGC,-0.206 E-score
13,CTGCAAGC,-0.0586 E-score
14,CAAAACAC,0.321 E-score
15,ATACGTGG,-0.17 E-score
16,GGTCGTTA,-0.00188 E-score
17,CTCTTCAC,-0.0383 E-score
18,ATCGAATG,-0.168 E-score
19,GTCCGGAA,-0.0289 E-score
20,ATAAAACC,-0.0191 E-score
21,CAACTTCG,-0.135 E-score
22,ATGACCGC,-0.0384 E-score
23,CTATTCCA,-0.114 E-score
24,CCGTATTA,0.141 E-score
25,CAGGAAAC,-0.158 E-score

row,Sequence,binding signal
1,GGGGTAGA,0.194 E-score
2,GGCCCGCA,-0.169 E-score
3,CATCCCCA,-0.15 E-score
4,AACCACAA,-0.0988 E-score
5,GCTGGAAC,-0.151 E-score
6,AGTGAGTG,0.0511 E-score
7,CTCACGAA,-0.0654 E-score
8,AAAATCCC,0.00921 E-score
9,GTGACGTA,-0.151 E-score
10,CCGTCGGA,0.0135 E-score
11,GGCCCTTA,-0.091 E-score
12,CATCGAAC,-0.0275 E-score
13,AACCCCTG,0.0584 E-score
14,CCAGTCTA,-0.0512 E-score
15,AAAGACGA,-0.212 E-score
16,ACGAATAA,0.0271 E-score
17,GGCGTACC,0.19 E-score
18,CGACTGCC,-0.0414 E-score
19,CGGGCTGC,0.00345 E-score
20,GAACGTTC,-0.233 E-score
21,ACTCTCTA,-0.0184 E-score
22,CTCTCAGC,-0.172 E-score
23,GAGCAGAC,-0.227 E-score
24,GCAATGTA,-0.0399 E-score
25,CTGAGTGA,-0.0863 E-score

row,Sequence,binding signal
1,ACCGATAC,0.268 E-score
2,CGGATGAG,0.0224 E-score
3,ATGCCACC,0.113 E-score
4,CAGACATG,-0.0941 E-score
5,CAGTTGAC,0.0323 E-score
6,ACCAAGGC,0.0741 E-score
7,CCCTTTCG,-0.0919 E-score
8,ATGGCTTA,-0.133 E-score
9,ACCTATTG,0.00187 E-score
10,GAACTAGC,-0.0871 E-score
11,GGATAGGA,-0.061 E-score
12,AGCCTACA,0.0664 E-score
13,CCCTAATC,-0.0285 E-score
14,CAATCCAC,0.168 E-score
15,ACTGTGGC,-0.0502 E-score
16,GTAGCACA,0.00619 E-score
17,AAAGCCAG,-0.00808 E-score
18,GGCCTCCA,-0.122 E-score
19,AAACCGTC,-0.0487 E-score
20,TGACATCA,-0.159 E-score
21,AACGTCCA,-0.157 E-score
22,GGGCGGAC,-0.00302 E-score
23,CTTGCTTC,-0.147 E-score
24,CGCGTTCA,0.0202 E-score
25,AACGCTCT,-0.11 E-score

row,Sequence,binding signal
1,GACAGTGC,-0.121 E-score
2,CGTTTAAA,-0.232 E-score
3,ATTTGGCG,-0.0528 E-score
4,GCAATTCC,-0.125 E-score
5,AGCGTTTG,-0.206 E-score
6,CCAGCTCG,0.012 E-score
7,CGCTCCCG,-0.0443 E-score
8,CGATATAC,0.00812 E-score
9,GAATATCA,-0.0698 E-score
10,CGACTCGA,0.0542 E-score
11,ACACAGGG,0.158 E-score
12,TCGGAGCA,-0.175 E-score
13,CTAGGAAG,-0.0432 E-score
14,ACTATACG,0.178 E-score
15,GTCCAGGA,-0.0739 E-score
16,GCATGTGA,-0.276 E-score
17,CCAATTCC,-0.0091 E-score
18,ACTCGCCG,0.0929 E-score
19,AGATGCTA,-0.172 E-score
20,ACCTAACG,-0.0343 E-score
21,ATCGCTCG,0.0232 E-score
22,ATGGAATC,-0.101 E-score
23,AATTCAAC,-0.133 E-score
24,CAGAGCGG,-0.091 E-score
25,CTTGAGGC,-0.147 E-score

row,Sequence,binding signal
1,AGGAGATC,-0.0983 E-score
2,AATGCTTG,-0.248 E-score
3,ACGAACTC,0.111 E-score
4,GGAGTGCC,-0.0693 E-score
5,CAAAAGAC,-0.142 E-score
6,AGATCGCC,-0.127 E-score
7,GTGTCAGA,0.453 E-score
8,AGAAAGGG,0.0538 E-score
9,GCACCTTA,0.0994 E-score
10,ATTTTGAA,-0.17 E-score
11,CCCCACAG,0.172 E-score
12,ATGGGCTG,-0.0771 E-score
13,CTCTGTCA,-0.258 E-score
14,GTCGGTCA,-0.218 E-score
15,CGCTGACC,-0.121 E-score
16,CCGATTAA,-0.15 E-score
17,ACACCTCT,0.467 E-score
18,AAGCCCGT,-0.101 E-score
19,GCCTACCC,0.106 E-score
20,ATATGTCC,-0.0922 E-score
21,GCATAATA,-0.0596 E-score
22,GAGACCAA,-0.248 E-score
